Reference: publication PMC4336329 (PLoS ONE, 2015)
The campaign covered roughly 310,000 compounds. About 2,200 (0.71%) showed an effect of 50% or more. The effect is printed as a negative number. The list shows a part of the results.

molecular target: human ether-à-go-go-related gene (hERG) potassium channel (human, UniProt Q12809); test: primary screen, population patch clamp on CHO cells stably expressing hERG
Sequence (Q12809 whole entry, looked up): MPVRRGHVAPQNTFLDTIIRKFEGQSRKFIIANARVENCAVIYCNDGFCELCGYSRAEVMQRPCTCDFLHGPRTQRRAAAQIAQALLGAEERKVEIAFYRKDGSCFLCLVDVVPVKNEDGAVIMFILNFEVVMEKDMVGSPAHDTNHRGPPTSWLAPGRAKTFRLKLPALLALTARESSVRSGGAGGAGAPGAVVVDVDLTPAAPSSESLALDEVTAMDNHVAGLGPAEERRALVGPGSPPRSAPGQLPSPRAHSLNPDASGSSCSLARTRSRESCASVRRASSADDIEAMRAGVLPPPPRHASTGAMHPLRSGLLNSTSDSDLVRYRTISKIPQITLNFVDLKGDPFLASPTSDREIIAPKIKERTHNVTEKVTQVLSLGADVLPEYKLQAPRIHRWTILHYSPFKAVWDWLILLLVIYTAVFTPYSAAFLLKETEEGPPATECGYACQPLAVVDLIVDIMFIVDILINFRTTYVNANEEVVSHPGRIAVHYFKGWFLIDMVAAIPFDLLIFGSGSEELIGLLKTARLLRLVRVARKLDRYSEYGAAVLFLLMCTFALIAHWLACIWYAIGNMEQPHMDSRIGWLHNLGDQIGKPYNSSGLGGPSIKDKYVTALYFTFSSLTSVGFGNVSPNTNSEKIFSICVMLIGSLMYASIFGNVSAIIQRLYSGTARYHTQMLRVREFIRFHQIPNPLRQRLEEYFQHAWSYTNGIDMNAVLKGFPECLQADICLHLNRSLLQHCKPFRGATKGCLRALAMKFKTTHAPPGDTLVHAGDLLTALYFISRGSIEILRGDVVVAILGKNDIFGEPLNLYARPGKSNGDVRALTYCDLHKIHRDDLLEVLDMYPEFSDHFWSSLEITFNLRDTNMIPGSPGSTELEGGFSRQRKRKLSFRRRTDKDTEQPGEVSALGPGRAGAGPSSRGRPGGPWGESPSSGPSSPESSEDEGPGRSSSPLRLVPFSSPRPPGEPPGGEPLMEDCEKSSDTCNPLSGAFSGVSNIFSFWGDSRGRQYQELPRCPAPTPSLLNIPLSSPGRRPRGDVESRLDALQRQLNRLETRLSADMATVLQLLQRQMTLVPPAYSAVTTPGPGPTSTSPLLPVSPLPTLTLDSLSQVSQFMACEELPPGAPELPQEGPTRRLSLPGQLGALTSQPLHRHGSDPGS

Q: How did the “hERG current change (%, negative = inhibition) at 1uM” value turn out when COc1ccccc1C1NC(=O)c2ccccc2O1 (stereo not shown) was run?
A: 4.52%

Q: Which “hERG current change (%, negative = inhibition) at 1uM” value does the source give for CCc1ccc(N(CC(=O)O)S(=O)(=O)c2c(C)noc2C)cc1 here?
A: 12.8%

Q: With NS(=O)(=O)c1ccc(NC(=O)c2cccc(N3C(=O)c4ccccc4C3=O)c2)cc1 as the molecule, how does the “hERG current change (%, negative = inhibition) at 1uM” value read?
A: 14.3%

Q: Which “hERG current change (%, negative = inhibition) at 1uM” value does the source give for N#CC1(Cc2ccccc2)c2ccccc2C=CN1C(=O)c1ccccc1 (stereo not shown) here?
A: 5.3%

Q: Which “hERG current change (%, negative = inhibition) at 1uM” value does the source give for COc1ccccc1C(=O)Nc1ccc2c(c1)nc(CN1CCCCC1)n2C here?
A: -1.16%

Q: With COC(=O)C1=C(c2cccc(OCc3ccccc3)c2)C[C@@H]2CC[C@H]1N2C(=O)NCc1ccc2[nH]ccc2c1 as the molecule, how does the “hERG current change (%, negative = inhibition) at 1uM” value read?
A: 10.9%

Q: How did the “hERG current change (%, negative = inhibition) at 1uM” value turn out when Cc1cccc(N(Cc2ccccc2)C(=O)CSC(C)C(=O)Nc2cc(C)on2)c1 (stereo not shown) was run?
A: 15.7%

Q: How did the “hERG current change (%, negative = inhibition) at 1uM” value turn out when CCO.C[C@H]1c2cccc(O)c2C(O)=C2C(=O)[C@]3(O)C(O)=C(C(N)=O)C(=O)[C@@H](N(C)C)C3[C@@H](O)C21.Cl.O (stereo partly shown) was run?
A: 13.3%

Q: How did the “hERG current change (%, negative = inhibition) at 1uM” value turn out when CCNC(=S)NNC(=O)C1CCCCC1 was run?
A: 5.71%

Q: Which “hERG current change (%, negative = inhibition) at 1uM” value does the source give for CCCCNC(=O)CSc1nc2ccsc2c(=O)n1C1CCN(C(=O)OCC)CC1 here?
A: -15.3%

Q: Which “hERG current change (%, negative = inhibition) at 1uM” value does the source give for Cc1ccc(NC(=O)Cn2c(O)c(N=NS(=O)(=O)c3ccc(C)cc3)c3ccccc32)cc1 here?
A: 9.8%

Q: How did the “hERG current change (%, negative = inhibition) at 1uM” value turn out when CCOC(=O)c1nnc2cc(C)nn2c1C was run?
A: 9.6%

Q: O=c1oc2c(CN3CCOCC3)c(O)ccc2c2ccccc12 was tested. Which “hERG current change (%, negative = inhibition) at 1uM” value did it give?
A: 1.67%

Q: With Cc1ccc(NC(=O)CCC(=O)N/N=C/c2ccc(O)cc2O)cc1 as the molecule, how does the “hERG current change (%, negative = inhibition) at 1uM” value read?
A: 15.7%

Q: How did the “hERG current change (%, negative = inhibition) at 1uM” value turn out when C/C(=N\N(c1ccccc1)c1ccccc1)c1ccc(N)cc1 was run?
A: 12.3%

Q: COc1ccccc1N1CCN(c2ccc3cc(S(=O)(=O)N4CCCCC4)ccc3n2)CC1 was tested. Which “hERG current change (%, negative = inhibition) at 1uM” value did it give?
A: 11.9%

Q: For CCOc1ccc2[nH]c3nc(SCC(=O)OC(C)C)nnc3c2c1, which “hERG current change (%, negative = inhibition) at 1uM” value is on record?
A: 14.6%

Q: Which “hERG current change (%, negative = inhibition) at 1uM” value does the source give for Cc1ccc(NC(=O)c2nc[nH]c2C(=O)N[C@@H](C)c2ccccc2)cc1 here?
A: 19.6%

Q: O=C(c1ccc(CNS(=O)(=O)c2ccc(Br)cc2)cc1)N1CCC2(CC1)OCCO2 was tested. Which “hERG current change (%, negative = inhibition) at 1uM” value did it give?
A: 2.65%

Q: O=C(CN1C(=O)CSc2ccccc21)NCCC1=CCCCC1 was tested. Which “hERG current change (%, negative = inhibition) at 1uM” value did it give?
A: 0.351%

Q: With CC(Sc1nc2ccccc2s1)C(=O)N(C)Cc1ccccc1 (stereo not shown) as the molecule, how does the “hERG current change (%, negative = inhibition) at 1uM” value read?
A: 8.28%

Q: For O=C(CSc1nncn1-c1ccccn1)Nc1cccc(Cl)c1, which “hERG current change (%, negative = inhibition) at 1uM” value is on record?
A: -2.19%

Q: With COc1ccc(NC(=O)CCN2C(=O)c3ccncc3C2=O)cc1OC as the molecule, how does the “hERG current change (%, negative = inhibition) at 1uM” value read?
A: 1.46%

Q: Which “hERG current change (%, negative = inhibition) at 1uM” value does the source give for COc1cc(CSC)nc(-c2ccccc2)n1 here?
A: 12.2%

Q: With CC(C)(C)c1cc(Cl)c(O)c(NC(=S)NC(=O)c2cccnc2)c1 as the molecule, how does the “hERG current change (%, negative = inhibition) at 1uM” value read?
A: 4.44%

Q: How did the “hERG current change (%, negative = inhibition) at 1uM” value turn out when COc1ccccc1/C=N/NC(=O)CSc1ccc2ccccc2n1 was run?
A: 16.6%

Q: Which “hERG current change (%, negative = inhibition) at 1uM” value does the source give for CCOC(=O)C1=C(COC(=O)C(C)(C)Oc2ccc(Cl)cc2)NC(=O)NC1C (stereo not shown) here?
A: 5.59%

Q: With Cc1nc2scc(-c3ccc(C(C)(C)C)cc3)c2c(=O)n1N as the molecule, how does the “hERG current change (%, negative = inhibition) at 1uM” value read?
A: 7.51%

Q: For CC1(C)OC(=O)N(c2cccnc2)C1(C)O (stereo not shown), which “hERG current change (%, negative = inhibition) at 1uM” value is on record?
A: 15.8%

Q: Cc1c(C(=O)N2CCCCC2C)sc2ncnc(N3CCc4ccccc4C3)c12 (stereo not shown) was tested. Which “hERG current change (%, negative = inhibition) at 1uM” value did it give?
A: 3.53%

Q: For O=C(NC1CC1)C1CCN(C2CCN(C(=O)c3ccc(C(F)(F)F)cc3)CC2)CC1, which “hERG current change (%, negative = inhibition) at 1uM” value is on record?
A: 0.78%

Q: N#Cc1nc(-c2ccccc2)oc1N1CCN(C(=O)c2ccco2)CC1 was tested. Which “hERG current change (%, negative = inhibition) at 1uM” value did it give?
A: -34.7%

Q: CCc1c(O)nc(SCC(=O)Nc2ccccc2OC)[nH]c1=O was tested. Which “hERG current change (%, negative = inhibition) at 1uM” value did it give?
A: 8.07%

Q: CC(NC(=O)c1ccc(CS(C)(=O)=O)cc1)c1cccc2ccccc12 (stereo not shown) was tested. Which “hERG current change (%, negative = inhibition) at 1uM” value did it give?
A: 6.06%

Q: For O=C(CNC(=O)c1ccc(Cl)cc1)Nc1ccccc1C(F)(F)F, which “hERG current change (%, negative = inhibition) at 1uM” value is on record?
A: 9.72%

Q: Which “hERG current change (%, negative = inhibition) at 1uM” value does the source give for COc1ccc(-c2noc(N3CCCC(C(=O)Nc4cc(F)ccc4F)C3)n2)cc1 (stereo not shown) here?
A: 5.89%

Q: How did the “hERG current change (%, negative = inhibition) at 1uM” value turn out when CCN(c1ccccc1)S(=O)(=O)c1ccc(Cl)c(NC(=O)Nc2ccc(Cl)cc2C#N)c1 was run?
A: 4.6%

Q: COc1ccccc1C1=NOC(Cn2c(NCC3CCCO3)nc3c2c(=O)n(C)c(=O)n3C)C1 (stereo not shown) was tested. Which “hERG current change (%, negative = inhibition) at 1uM” value did it give?
A: 10.9%

Q: With Cc1ccc(S(=O)(=O)N2CCC(C(=O)Nc3ccccc3N3CCCC3)CC2)cc1C as the molecule, how does the “hERG current change (%, negative = inhibition) at 1uM” value read?
A: 13.1%

Q: Which “hERG current change (%, negative = inhibition) at 1uM” value does the source give for COc1ccc(N2C(=O)C3CCCN3C2c2ccccc2)cc1 (stereo not shown) here?
A: 6.98%

Q: For O=C(C(Sc1ccccc1)c1ccc(Br)cc1)N1CCOCC1 (stereo not shown), which “hERG current change (%, negative = inhibition) at 1uM” value is on record?
A: 4.97%

Q: How did the “hERG current change (%, negative = inhibition) at 1uM” value turn out when CC(C)OC(=O)CSc1nnc(-c2ccccn2)n1N was run?
A: 14.9%

Q: O=C(Nc1ccccc1-c1nnn(CC(=O)N2CCCc3ccccc32)n1)c1ccco1 was tested. Which “hERG current change (%, negative = inhibition) at 1uM” value did it give?
A: -2.43%

Q: How did the “hERG current change (%, negative = inhibition) at 1uM” value turn out when CC(C)[C@H](NC(=O)c1cc2cc(Cl)ccc2n1C)C(=O)N[C@@H](C(=O)O)c1ccccc1 was run?
A: 9.95%

Q: O=C(CCCCCCN1C(=O)c2ccccc2C1=O)N1CCC(c2ccccc2)C1 (stereo not shown) was tested. Which “hERG current change (%, negative = inhibition) at 1uM” value did it give?
A: -0.85%

Q: Which “hERG current change (%, negative = inhibition) at 1uM” value does the source give for S=c1[nH]cc(-c2ccc(Cl)cc2)n1-c1ccccc1 here?
A: 0.551%

Q: With NNS(=O)(=O)c1ccc(N2CCCC2=O)c([N+](=O)[O-])c1 as the molecule, how does the “hERG current change (%, negative = inhibition) at 1uM” value read?
A: 14.9%

Q: CCOC(=O)C1=CCC2c3c(c4ccccc4n3C)C(=O)C1N2C(=O)OC(C)(C)C (stereo not shown) was tested. Which “hERG current change (%, negative = inhibition) at 1uM” value did it give?
A: 15.9%

Q: With CCn1c(=O)c2c(nc3n2CCCN3CCc2ccccc2)n(C)c1=O as the molecule, how does the “hERG current change (%, negative = inhibition) at 1uM” value read?
A: 4.37%

Q: With O=S(=O)(CCc1nc2ccccc2s1)c1ccc(Cl)cc1 as the molecule, how does the “hERG current change (%, negative = inhibition) at 1uM” value read?
A: 2.13%

Q: For COc1ccc2c(=O)c3ccccc3oc2c1, which “hERG current change (%, negative = inhibition) at 1uM” value is on record?
A: 5.86%

Q: How did the “hERG current change (%, negative = inhibition) at 1uM” value turn out when CCn1c(=O)c2cc(S(=O)(=O)NC3CCCCC3)ccc2n(CC)c1=O was run?
A: 0.676%

Q: For CCOC(=O)/C=C/C(=O)Nc1ccc(Oc2ccccc2)cc1, which “hERG current change (%, negative = inhibition) at 1uM” value is on record?
A: 10.2%

Q: CCCCOc1ccc(CN2CCN(CCO)CC2)cc1 was tested. Which “hERG current change (%, negative = inhibition) at 1uM” value did it give?
A: 7.93%

Q: With CCn1c(P(C)(=O)[O-])nc2cc(NC(=O)c3ccccc3F)ccc21.[K+] as the molecule, how does the “hERG current change (%, negative = inhibition) at 1uM” value read?
A: 20.6%
